Measured values taken from the RNAGym collection of RNA variant scans (doi:10.7554/elife.90254).
Read counts are not given, so values of variants with three or more changes are uncertain.

B1: OR4K15 (parent)
chain: GUUAACGGUCAUAGGCCAUGGAAACUAGGAGCACCAUUUCGCUGCCAGUGAAGAAAUGAACAAAGAAAAUCUGGGCCAGGCAGGCAUCAAAAGAAAUAGUCUUGCGCUCAACCAGAAAGUCUGUAAUCAUUUUAAGGGUA

Variants of: B1
Experiment: self-cleavage, relative activity (ratio to wild type); higher = more cleavage; in vitro, sequencing; the parent is a self-cleaving ribozyme

| Variant | self-cleavage |
| --- | --- |
| U9C A54G G75A G138A | 0.21 |
| U9A U12C A55G A62U A114G | 0.11 |
| U9C G15A U19C U37A A60U | 1.51 |
| U9C A27G U70C A98G A116U | 0.09 |
| U9C G28U A36G A94U | 1.61 |
| U9A A63G C128A | 1.14 |
| U9C U120C U131A U133C | 0.53 |
| C10U C85A A95G | 0.75 |
| A11G A13G U38A A52G A90G | 0.54 |
| U9C C10U U108C A117U | 0.01 |
| U9C A24G A92U U127C U133A | 0.98 |
| C10U A59G U87C U131C | 1.82 |
| U9C U49C A56G A89U A117G | 1.53 |
| U9C A22G U37C U49A A55G | 0.69 |
| U9C A36G C40U | 1.94 |
| U9C G29A A51G A98G | 0.49 |
| U9C A33G U43C G65U A69G U72A | 0.27 |
| U9C A60G U108C | 0.06 |
| U9G U57C A59U A90U | 1.21 |
| U9C U97A U100C U132C | 1.48 |
| C10U A55G A118C | 1.09 |
| U9C A36U U38C | 1.95 |
| U9C U37C A67G U139A | 0.43 |
| U9C U37C A92U U130C | 1.95 |

| Variant | self-cleavage |
| --- | --- |
| U9C U72C A94G U130C | 0.06 |
| U9C A60G C121U | 1.73 |
| U9A A36G A63U C88U | 0.74 |
| U9C A24G A51G | 1.68 |
| U9A U87C A126G | 0.89 |
| U9C A63G A111G | 0.03 |
| U9C A22G U43A A117G U122C | 1.27 |
| U9A A90U A118G | 0.94 |
| U9C A11G G74A U133C | 0.38 |
| U9A A30G U49C A55G A129G | 0.8 |
| U9C G50U A52G U127A | 2.01 |
| U9C U49C G74A A78G | 0.3 |
| A11G A18C A66U | 0.84 |
| U9C U12C A23G A78G | 0.59 |
| U9C A13G U19A A67G | 1.16 |
| U9A U70C A95G | 1.25 |
| C10U A82G A114U | 0.03 |
| U9C A11G A96G | 0.7 |
| U9C U39A A55G A64G | 1.93 |
| U9C A59G A125G | 1.16 |
| U9A A68G A92G | 0.89 |
| U9C U26C U39C A56G A94G | 0.7 |
| U9C A33U U37C A69G A90G A116G U127C | 0.25 |
| U9A A96G U130C | 1.04 |

| Variant | self-cleavage |
| --- | --- |
| C10U A90G U108C | 0.02 |
| U9C U103G A111U A117U | 0.01 |
| U9C A89U A94G | 1.74 |
| U9C A30G C85A | 1.17 |
| A11C A67G A94G | 1 |
| U9C U26C U57C A67G A68G A86U | 0.83 |
| C10U G73U A117G | 0.08 |
| U9A A47G U108C | 0.01 |
| C10U U26A C81G A118G | 0.06 |
| U9A U39A A51G A60G A66G | 0.6 |
| U9A U38C U39A C42U A90G G106C | 0.04 |
| U9A A51C C85U U120C | 0.5 |
| A11C C25U A27G A68G | 1.47 |
| U9C A54G A66G U127A | 2.09 |
| U9C U12G A68G U87C | 1.52 |
| U9C A54G A135C | 0.81 |
| U9C A33U A64G | 2.03 |
| U9C G53A A111U | 0.06 |
| U9C A68G U131C | 1.35 |
| U9A A56G A69G A82G | 0.43 |
| U9C A22U A67G U72C A82G | 0.33 |
| U9C A23G A111G | 0.02 |
| U9C A24G A36G A92G | 1.05 |
| U9C A47G A116C | 0 |

| Variant | self-cleavage |
| --- | --- |
| C10U U130A U133C A134G | 0.43 |
| U9C A47C A125G | 0.72 |
| U9A A36G U43C U72C A117U A118G | 0.28 |
| A11C C25U U37C U108C A110G | 0.04 |
| U9C A13G A24G A56G A67G A135G | 0.75 |
| U9C U43C A59U A62G | 1.21 |
| U9A C32A A55G A68C A90G A95G A110G G115A | 0.01 |
| U9A U43G A66G A90G | 1.24 |
| A11C A18G A82U A118G | 0.17 |
| U9A U37C U130C | 0.6 |
| U9A U49C A89G | 1.01 |
| U9C A51G U131C | 1.19 |
| U9C A62G A69G A94G A118G A129G | 0.39 |
| U9C A47U A51G | 1.15 |
| U9C G29U A54G A68G | 0.85 |
| U9C A30G A47G U131C | 1.17 |
| C10A A63C A90G A98G C121A | 2.01 |
| A11G A18U G21A A47U | 0.93 |
| U9C A54G A55G U72A U100C | 0.77 |
| U9C A69G U87C | 0.69 |
| U9A A51G G53A U57A | 1.18 |
| U9C A13G U19C A62G C88U | 1.3 |
| U9C A24G A66G C76U A96U | 0.3 |
| A11G A13G A114G A118G A126G | 0.1 |

| Variant | self-cleavage |
| --- | --- |
| U9A U39C A52G A78U U103C | 0.23 |
| U9C A59U A116G C128U | 0.39 |
| U9C U43A G104C | 0.03 |
| U9C A92G U103C | 1.13 |
| U9C A13U A55U A86U | 0.48 |
| U9C C16A U108C A125G U127C | 0 |
| U9C A47G U70C A91G G115A | 0.05 |
| U9C A30G A114G U127C | 0.64 |
| U9C U38C A47G A116G | 0.62 |
| U9A U49G A96G A117U | 1.22 |
| A11G A13G A94G U108C A118G U124A | 0.02 |
| C10U A86G A95G | 2.26 |
| U9C G44A U70C A126G | 0.8 |
| C10A U43A U49A A117G A140U | 2.32 |
| U9C U49C A64G U131A | 1.25 |
| U9C A89U U131C | 1.93 |
| U9C A24G A90U | 1.06 |
| U9C A89G A98G A126G U130C U131C | 0.26 |
| U9C A11G A56G A66G A69G G80A | 0.14 |
| U9C A51G A95G U97A | 1.5 |
| U9C A30U A68U | 1.12 |
| U9C A64G A66G A86U A111G | 0.13 |
| U9G A18G C45A U120C | 0.61 |
| A11C A94G U100C | 2.37 |

| Variant | self-cleavage |
| --- | --- |
| U9C U43C U103A | 0.5 |
| U9C C25U A33G A56G A64G | 1.18 |
| U9A U38C A52G | 0.91 |
| U9C A13G A68G A92G | 0.75 |
| A11C A18C A54G | 1.42 |
| U9A U12A A56G A59G U70C A95G | 0.3 |
| U9C A64G U70C | 0.66 |
| U9C A59G A117G | 0.98 |
| U9C A68G A118G | 0.6 |
| U9C A36G A91G | 1.77 |
| U9C A82U G137U | 0.45 |
| U9C A22G U43C A60G A64G U70A A96U | 1.05 |
| U9C A30U A69G A91U G99A | 0.46 |
| A11G A18G U57C A116G | 0.55 |
| C10U A63G A92G U130C | 0.89 |
| U9C U108C G119A U124C | 0.01 |
| U9C A78G A96G | 0.34 |
| A11C U43C A47G U57C | 0.71 |
| U9C U37C A94G U132C | 1.69 |
| U9C U39C A47G | 1.34 |
| A11C A51G A129U U132C | 0.53 |
| A11C A67G A89G | 2.05 |
| U9A A30G G106U A116G | 0.03 |
| U9A A30U U87A U122C | 1.08 |

| Variant | self-cleavage |
| --- | --- |
| U9A U49C C76U U102C | 0.05 |
| U9A A54G A68U | 1.27 |
| U9C A66G A89C U127C | 0.96 |
| U9C A82G A86U | 1.68 |
| U9C A22G U87C | 1.2 |
| A11C A23G A67G | 1.3 |
| U9C A36U A78G U87C U102C | 0.49 |
| U9A U70G A91G A110G | 0.03 |
| U9C U57C A117G | 1.58 |
| U9C A55U G79A | 0.21 |
| U9C A92G U102C U122A | 1.16 |
| C10U A24G U49A G80A U97C | 0.18 |
| C10U C16U C61U A96U A117C | 0.78 |
| U9C A27G A51G | 0.87 |
| U9C A67G U127C | 1.76 |
| C10U A30G A95U U100A U122C | 0.98 |
| U9G A18G A52G | 1 |
| A11C U19C A95G | 1.67 |
| U9C A66C A82G U100C | 1.73 |
| U9C A69G A95G A114U A118G | 0.05 |
| A11C A117G U120A A129U | 1.85 |
| U9C A89G U127C | 0.73 |
| U9C U39A G80A C113G A129G | 0 |
